Data reported in the supplement of paper PMC12645437, “Orthogonal IMiD-Degron Pairs Induce Selective Protein Degradation in Cells” (ACS Chemical Biology, 2025).
Some of the results follow.

These sequences were tested against no compound (DMSO) (assay: log2 fold change of degron read counts, EGFP-low vs EGFP+ sorted cells; higher = lower degron-EGFP level without compound (poor expression or instability)). Settings: compound: DMSO control; 18 h.
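Also: jurkat cells carrying a lentiviral library of mutant zinc finger degrons fused to EGFP plus mCherry, mCherry+ cells FACS sorted, degron abundance counted by next-generation sequencing.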

| Sequence | log2 fold change of degron read counts |
| --- | --- |
| FYCPICGRQFTQKGNLLRHIKL | -1.45 |
| FDCNICGAIFTQKGNLLRHIKL | -0.252 |
| FNCNQCGRMFTQKGNLLRHIKL | 0.0432 |
| FDCPICGRLFTQKGNLLRHIKL | 0.105 |
| FKCEQCGAAFTQKGNLLRHIKL | -2.66 |
| FNCNICGALFTQKGNLLRHIKL | 0.345 |
| LLCEICGFNCTQKGNLLRHIKL | 0.377 |
| FSCEICGAFFTQKGNLLRHIKL | -1.65 |
| FSCNQCGALFTQKGNLLRHIKL | -0.159 |
| FECEICGAVFTQKGNLLRHIKL | -1.56 |
| LDCNQCGFKCTQKGNLLRHIKL | 0.151 |
| LECNQCGFCCTQKGNLLRHIKL | -0.272 |
| FTCDICGAHFTQKGNLLRHIKL | -0.755 |
| FICDICGAPFTQKGNLLRHIKL | -0.732 |
| LECEICGFVCTQKGNLLRHIKL | -0.697 |
| FRCPICGAKFTQKGNLLRHIKL | 0.219 |

| Sequence | log2 fold change of degron read counts |
| --- | --- |
| LWCNQCGFECTQKGNLLRHIKL | 0.919 |
| FDCEQCGATFTQKGNLLRHIKL | -2.93 |
| LHCNQCGFTCTQKGNLLRHIKL | 0.105 |
| FRCDICGADFTQKGNLLRHIKL | -1.53 |
| FWCPICGHGFTQKGNLLRHIKL | 2.69 |
| FECPICGAAFTQKGNLLRHIKL | -0.59 |
| FACPVCGAIFTQKGNLLRHIKL | 0.00517 |
| FQCEQCGAEFTQKGNLLRHIKL | -1.92 |
| FECDVCGACFTQKGNLLRHIKL | -0.67 |
| FICEICGAFFTQKGNLLRHIKL | -0.723 |
| FRCPICGRWFTQKGNLLRHIKL | 1.03 |
| FDCPICGHIFTQKGNLLRHIKL | -0.205 |
| FYCPICGAHFTQKGNLLRHIKL | -0.0571 |
| FFCEICGASFTQKGNLLRHIKL | -0.933 |
| FSCPICGHAFTQKGNLLRHIKL | -0.0976 |
| FVCEICGREFTQKGNLLRHIKL | -2.56 |
